# From PubChem BioAssay AID1347120 (National Center for Advancing Translational Sciences (NCATS), 2019)
# The whole screen tested about 390,000 compounds, of which about 930 (0.24%) were called active. This list was built around the results that the source calls inconclusive (neither active nor inactive); the mix of calls is not that of the screen. Calls come from the whole dose curve; as a rule, active = well fitted activation curve with a large enough effect; inconclusive = small, poorly fitted or top-dose-only effect; inactive = no such curve, though single readings can be large or run the other way. Where the call is inconclusive, the potency comes from a doubtful curve fit.
# Test: qHTS for Suppressors of FUS Proteinopathy: Primary screen using FUS-linked yeast assay; note: nearly all actives have a fitted effect of over 55% in size;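 for growth rescue (activation): plate controls were DMSO vehicle for no effect and reference control for full effect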
# Conditions: S. cerevisiae FUS-expressing, OD600, 24 h; Potency: growth rescue; growth rescue (activation): at 76.6 µM (top of the series)
# Method in brief: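 Read-out: OD at 600 nm after 24hr at 30C, reporting rescue of FUS-induced yeast toxicity. Cells at OD 0.005 in galactose (2%) minimal medium; compounds tested in a dilution series; CP55940 titration from 92uM final as control.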
# Potency is the fitted concentration of half-maximal effect; tags give direction and shape of the fitted curve.
Structure (SMILES),Potency,growth rescue (activation)
COc1cc2cc(C(=O)N3CCOCC3)cc(-c3ccc(C)cc3)c2cc1OC,"inconclusive: 35.5 µM [activator, single point]",
Cc1cc(Nc2cccc(C(F)(F)F)c2)nc2ccc(NC(=O)c3ccc(N(C)C)cc3)cc12,,inactive: 23.4%
Cc1cc(O)c(C(c2ccc(F)cc2)N2CCCCC2)c(=O)n1Cc1ccco1 (stereo unspecified),"inconclusive: 31.6 µM [activator, partial curve, poor fit]",
CCc1ccc(-n2nc(C)c3c(C(=O)Nc4cccc(C(F)(F)F)c4)cc(C)nc32)cc1,,inactive: -5.14%
O=C(Nc1cccc(C(=O)N2CCCCC2)c1)c1nsc2ccccc12,,inactive: 33.3%
COc1ccc2oc(C(=O)N3CCCc4ccccc43)c(C)c2c1,,inactive: 19.8%
COC(=O)[C@]12CCCCC=C1N(Cc1ccc(OC)cc1)C(=O)[C@@H]2CC(=O)N1CCCC1,,inactive: 30.3%
COC(=O)C1=C(C)N(Cc2ccccc2)C(=NCCCCO)N[C@H]1c1cccc(C(F)(F)F)c1,"inconclusive: 31.6 µM [activator, single point]",
CCC(=O)NC(c1ccccc1OC)c1ccc2cccnc2c1O (stereo unspecified),"inconclusive: 12.6 µM [activator, partial curve, poor fit]",
CCOc1ccc(CNC(=O)C2CCCN(c3nc4c(C)cc(C)cc4s3)C2)cc1 (stereo unspecified),,inactive: -12.6%
CCCOc1ccc(C(=O)Nc2cccc(-c3nc4ccccc4[nH]3)c2)cc1,"inconclusive: 35.5 µM [activator, single point]",
COc1cc2c(cc1OC)-c1cc(NCc3ccccn3)nc(=O)n1CC2,,inactive: 6.09%
CS(=O)(=O)Nc1cccc(C2=NN(C(=O)c3ccc(F)cc3)C(c3cccs3)C2)c1 (stereo unspecified),"inconclusive: 31.6 µM [activator, single point]",
Cc1ccc(OCc2nc3ccccc3n2C(C(=O)Nc2c(C)cccc2C)C2CC2)cc1 (stereo unspecified),active: 8.91 µM,
COc1ccc(OC(=O)c2nc(SCc3ccc(C)cc3)ncc2Cl)cc1,,inactive: -5.25%
COC(=O)c1ccc(COc2nc(C)cc(C)c2C#N)o1,,inactive: 19.3%
CN(c1ccccc1)S(=O)(=O)c1ccc(NC(=S)NC(=O)c2ccccc2)cc1,"inconclusive: 1.26 µM [activator, full curve]",
C[C@H](CO)N1C[C@H](C)[C@@H](CN(C)Cc2ccc(C(=O)O)cc2)Oc2c(NS(=O)(=O)c3ccc(F)cc3)cccc2C1=O,,inactive: -6.3%
Cc1cc2cc3c(cc2n2c(SCC(=O)Nc4nc(-c5ccccc5)cs4)nnc12)OCO3,,inactive: 4.77%
COC(=O)[C@]12C[C@H](CC(=O)NCc3cccc4ccccc34)C(=O)N(Cc3ccco3)C1=C[C@H](C(C)(C)C)O[C@@H]2C,"inconclusive: 8.91 µM [activator, partial curve]",
Cc1ccnc(NC(c2ccccc2)c2ccc3cccnc3c2O)c1 (stereo unspecified),"inconclusive: 11.2 µM [activator, partial curve, poor fit]",

Structure (SMILES),Potency,growth rescue (activation)
CCc1c(C)c2ccc3c(c2oc1=O)CN(Cc1ccccc1)CO3,,inactive: -10.4%
O=C(Nc1ccc2c(c1)CCC2)C1CCN(c2c3c(nc4ncnn24)CCC3)CC1,"inconclusive: 15.8 µM [activator, partial curve, poor fit]",
C=CC[C@H](CC(=O)OC(C)(C)C)C(=O)OC[C@@H]1CCCN1C(=O)[C@H](CC=C)CC(=O)N[C@H](CO)Cc1ccccc1,"inconclusive: 39.8 µM [activator, single point]",
CC(C)(C)[C@H]1COC(=O)[C@@H](Cc2ccc(F)cc2)CC/C=C/C[C@@H](CC(=O)N[C@@H](CO)Cc2ccccc2)C(=O)N1,"inconclusive: 31.6 µM [activator, single point]",
CCCCCCCCN1C(=O)[C@@H](CC(=O)N2CCN(C(=O)C3CC3)CC2)C[C@@]2(C(=O)OC)C1=C[C@H](C(C)C)O[C@@H]2C1CC1,active: 28.2 µM,
CCN(CC)c1ccc2c(Cl)c(Br)c(=O)oc2c1,,inactive: 24.8%
CC(NC(=O)COc1ccccc1-c1ccccc1)c1ccccc1 (stereo unspecified),"inconclusive: 31.6 µM [activator, single point]",
CCN(CC)S(=O)(=O)c1ccc(NC(=O)[C@H](CSCc2ccccc2)N2Cc3ccccc3C2=O)cc1,"inconclusive: 3.98 µM [activator, full curve]",
O=C(CC(CC(=O)c1ccccc1)c1ccccc1)c1ccccc1,,inactive: 14.4%
CCOC(=O)Cn1c(Br)nc2c1c(=O)[nH]c(=O)n2C,"inconclusive: 3.98 µM [activator, partial curve, poor fit]",
CC(C)CN1C(=O)[C@@]2(CC(=O)N(C)C2c2ccccc2)c2cc(-n3cc(CO)nn3)ccc21 (stereo partly specified),,inactive: 8.21%
O=C(c1cc(-c2ccco2)nc2ccccc12)N(Cc1nnc(-c2ccc(Cl)cc2)o1)C1CC1,"inconclusive: 14.1 µM [activator, partial curve]",
CC(C)Cc1nnc(NC(=O)CSc2ccccn2)s1,,inconclusive: 58.2% [activator]
CCc1nnc(NS(=O)(=O)c2ccc(Nc3ccc([N+](=O)[O-])c4nonc34)cc2)s1,"inconclusive: 28.2 µM [activator, partial curve, poor fit]",
Cc1ccc(S(=O)(=O)Nc2ccc(-c3cn4ccc(C)cc4n3)cc2)cc1,"inconclusive: 44.7 µM [activator, single point]",
CCCCCOC(=O)CSc1nnc(-c2cc(OC)c(OC)c(OC)c2)o1,"inconclusive: 8.91 µM [activator, partial curve]",
COc1ccc(CN(C(=O)CN2C(=O)C(C)Oc3ccccc32)C2CCCC2)c(OC)c1 (stereo unspecified),"inconclusive: 22.4 µM [activator, partial curve, poor fit]",
CCN(Cc1nc2ccccc2c(=O)[nH]1)C(=O)c1cccc(S(=O)(=O)N2CCc3ccccc32)c1,"inconclusive: 22.4 µM [activator, partial curve]",
COc1ccc(S(=O)(=O)N2CCOC2CNC(=O)C(=O)NCCc2ccccc2OC)cc1C (stereo unspecified),"inconclusive: 35.5 µM [activator, single point]",
COc1cc(NC(=O)c2csc(-c3ccncc3)n2)cc(C(=O)Nc2cccc(C(F)(F)F)c2)c1,"inconclusive: 50.1 µM [activator, single point]",
